Test results taken from paper PMC12713065.
These are yes or no findings as the source states them, for the method shown. In cells and extracts the contact can be indirect. Some entries that bind do so weakly or less than the wild type. Values belong to the molecule of their own block, whether it stands above or below them.

Chains of the proteins cited; added tags and fusions are not shown. Lines headed by an entry give the natural chain unless they say otherwise; changes in a name come on top. Residues count along the entry.
UniProt P53396: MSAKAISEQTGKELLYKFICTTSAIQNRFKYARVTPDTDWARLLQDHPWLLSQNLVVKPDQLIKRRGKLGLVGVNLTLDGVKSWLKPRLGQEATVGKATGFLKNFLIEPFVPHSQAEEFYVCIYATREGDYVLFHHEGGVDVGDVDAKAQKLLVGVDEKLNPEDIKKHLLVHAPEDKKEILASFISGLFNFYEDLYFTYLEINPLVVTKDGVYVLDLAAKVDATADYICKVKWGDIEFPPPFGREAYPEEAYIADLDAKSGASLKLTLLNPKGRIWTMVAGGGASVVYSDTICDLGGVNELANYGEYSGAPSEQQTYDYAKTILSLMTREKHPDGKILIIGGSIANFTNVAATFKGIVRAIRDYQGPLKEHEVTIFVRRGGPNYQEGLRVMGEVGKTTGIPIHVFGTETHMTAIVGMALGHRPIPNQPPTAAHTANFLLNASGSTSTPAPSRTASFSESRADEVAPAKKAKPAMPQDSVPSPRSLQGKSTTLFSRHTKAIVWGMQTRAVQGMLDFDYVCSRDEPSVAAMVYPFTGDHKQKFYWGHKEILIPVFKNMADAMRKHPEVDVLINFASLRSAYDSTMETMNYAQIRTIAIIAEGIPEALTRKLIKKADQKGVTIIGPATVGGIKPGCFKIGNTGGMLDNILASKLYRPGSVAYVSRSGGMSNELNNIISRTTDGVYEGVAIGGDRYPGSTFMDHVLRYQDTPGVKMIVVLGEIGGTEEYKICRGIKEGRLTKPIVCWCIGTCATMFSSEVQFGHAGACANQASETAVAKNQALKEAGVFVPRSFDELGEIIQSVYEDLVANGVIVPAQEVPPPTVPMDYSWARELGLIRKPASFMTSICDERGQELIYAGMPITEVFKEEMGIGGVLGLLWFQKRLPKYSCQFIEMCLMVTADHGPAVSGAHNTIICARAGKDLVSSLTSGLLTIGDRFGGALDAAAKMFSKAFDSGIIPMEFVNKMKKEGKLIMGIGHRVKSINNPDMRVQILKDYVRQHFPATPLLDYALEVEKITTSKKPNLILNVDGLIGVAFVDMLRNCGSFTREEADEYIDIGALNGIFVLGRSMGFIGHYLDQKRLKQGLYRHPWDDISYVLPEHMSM
GST-ACLY deletion mutant D3 (CoA ligase domain, residues 631-850): residues 631-850 of P53396
UniProt Q92769: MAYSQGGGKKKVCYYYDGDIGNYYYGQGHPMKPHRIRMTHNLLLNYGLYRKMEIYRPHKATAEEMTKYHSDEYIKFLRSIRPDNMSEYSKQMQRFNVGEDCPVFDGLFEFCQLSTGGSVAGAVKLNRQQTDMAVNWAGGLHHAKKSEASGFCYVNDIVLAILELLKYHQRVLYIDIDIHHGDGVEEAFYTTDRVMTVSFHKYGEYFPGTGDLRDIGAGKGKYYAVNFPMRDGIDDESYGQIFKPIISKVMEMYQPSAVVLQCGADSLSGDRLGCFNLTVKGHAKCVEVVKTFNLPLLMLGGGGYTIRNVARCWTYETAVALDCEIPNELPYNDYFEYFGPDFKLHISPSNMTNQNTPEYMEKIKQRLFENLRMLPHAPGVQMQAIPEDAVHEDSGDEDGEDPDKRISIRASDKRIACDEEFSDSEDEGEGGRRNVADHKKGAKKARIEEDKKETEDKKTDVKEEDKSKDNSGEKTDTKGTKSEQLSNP
UniProt Q13547: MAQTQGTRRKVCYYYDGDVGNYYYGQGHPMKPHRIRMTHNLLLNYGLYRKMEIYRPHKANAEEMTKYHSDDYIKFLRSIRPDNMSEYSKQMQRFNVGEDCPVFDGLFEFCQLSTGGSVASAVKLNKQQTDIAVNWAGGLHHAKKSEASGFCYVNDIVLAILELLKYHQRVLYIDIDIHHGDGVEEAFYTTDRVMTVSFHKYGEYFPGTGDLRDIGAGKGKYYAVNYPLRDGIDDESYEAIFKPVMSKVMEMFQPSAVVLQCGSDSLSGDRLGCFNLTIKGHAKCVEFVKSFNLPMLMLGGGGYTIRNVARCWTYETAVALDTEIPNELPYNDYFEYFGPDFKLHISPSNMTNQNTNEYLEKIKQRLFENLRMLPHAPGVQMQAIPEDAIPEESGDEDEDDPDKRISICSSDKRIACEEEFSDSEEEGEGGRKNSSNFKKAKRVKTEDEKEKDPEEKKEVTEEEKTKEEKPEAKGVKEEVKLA

Assays:
[1] = target: GST-ACLY deletion mutant D3 (CoA ligase domain, residues 631-850) (UniProt P53396); assay: pull-down; GST-tagged ACLY fragments on glutathione sepharose beads incubated with HA-HDAC2 overexpressed cell lysates at 4 °C for 3 h, washed five times, western blot; only the target purified
[2] = target: Flag-ACLY (ATP citrate lyase, wild type, transfected) (UniProt P53396); assay: co-IP; HCT8 cells transfected with Flag-tagged ACLY, IP and western blot for HDAC2 or HDAC1
[3] = target: endogenous ACLY (ATP citrate lyase) (human (endogenous in HCT8)) (UniProt P53396); assay: co-IP; endogenous proteins in HCT8 cells, protein A/G beads with the indicated antibody; with or without 5-FU (1 µM for 24 h)
[4] = target: endogenous ACLY (ATP citrate lyase) (human (endogenous in HCT8)) (UniProt P53396); assay: proximity ligation; Duolink in situ Red kit on fixed, permeabilized cells (HCT8, HCT8R, cells stably expressing ACLY-WT/K978R), confocal microscopy
[5] = target: ACLY-K978R stably expressed in HCT8/shACLY cells (UniProt P53396); assay: co-IP; HCT8/shACLY cells stably expressing ACLY-WT or K978R, western blot for endogenous RBM15
[6] = target: ACLY-K978R stably expressed in HCT8/shACLY cells (UniProt P53396); assay: proximity ligation; Duolink in situ Red kit on fixed, permeabilized cells (HCT8, HCT8R, cells stably expressing ACLY-WT/K978R), confocal microscopy

binding [1]: binds
Molecule: HA-HDAC2 (from UniProt Q92769 1-488) (enzyme)

binding [2]: no binding
Molecule: histone deacetylase 1 (HDAC1) in HCT8 cells (from UniProt Q13547 1-482) (enzyme)

binding [2]: binds
binding [3]: binds
binding [4]: binds
Molecule: histone deacetylase 2 (HDAC2) in HCT8 / HCT8R cells (from UniProt Q92769 1-488) (enzyme)

binding [5]: binds
binding [6]: binds
B1: endogenous RNA-binding protein 15 (RBM15) (protein, UniProt Q96T37 1-977)
chain: MRTAGRDPVPRRSPRWRRAVPLCETSAGRRVTQLRGDDLRRPATMKGKERSPVKAKRSRGGEDSTSRGERSKKLGGSGGSNGSSSGKTDSGGGSRRSLHLDKSSSRGGSREYDTGGGSSSSRLHSYSSPSTKNSSGGGESRSSSRGGGGESRSSGAASSAPGGGDGAEYKTLKISELGSQLSDEAVEDGLFHEFKRFGDVSVKISHLSGSGSGDERVAFVNFRRPEDARAAKHARGRLVLYDRPLKIEAVYVSRRRSRSPLDKDTYPPSASVVGASVGGHRHPPGGGGGQRSLSPGGAALGYRDYRLQQLALGRLPPPPPPPLPRDLERERDYPFYERVRPAYSLEPRVGAGAGAAPFREVDEISPEDDQRANRTLFLGNLDITVTESDLRRAFDRFGVITEVDIKRPSRGQTSTYGFLKFENLDMSHRAKLAMSGKIIIRNPIKIGYGKATPTTRLWVGGLGPWVPLAALAREFDRFGTIRTIDYRKGDSWAYIQYESLDAAHAAWTHMRGFPLGGPDRRLRVDFADTEHRYQQQYLQPLPLTHYELVTDAFGHRAPDPLRGARDRTPPLLYRDRDRDLYPDSDWVPPPPPVRERSTRTAATSVPAYEPLDSLDRRRDGWSLDRDRGDRDLPSSRDQPRKRRLPEESGGRHLDRSPESDRPRKRHCAPSPDRSPELSSSRDRYNSDNDRSSRLLLERPSPIRDRRGSLEKSQGDKRDRKNSASAERDRKHRTTAPTEGKSPLKKEDRSDGSAPSTSTASSKLKSPSQKQDGGTAPVASASPKLCLAWQGMLLLKNSNFPSNMHLLQGDLQVASSLLVEGSTGGKVAQLKITQRLRLDQPKLDEVTRRIKVAGPNGYAILLAVPGSSDSRSSSSSAASDTATSTQRPLRNLVSYLKQKQAAGVISLPVGGNKDKENTGVLHAFPPCEFSQQFLDSPAKALAKSEEDYLVMIIVRGFGFQIGVRYENKKRENLALTLL
